Test results from PubChem BioAssay AID504332 (National Center for Advancing Translational Sciences (NCATS), 2011).
Where “and” joins values, the source holds several entries; their conditions need not be identical. Equal entries are not always repeated. Screen size: about 350,000 compounds; about 31,000 (8.9%) were called active. Inconclusive means that the source gave no clear call. Such entries were picked first, then a sample of the others. Calls follow the shape of the dose curve; as a rule, active = well fitted inhibition curve with a large enough effect; inconclusive = small, poorly fitted or top-dose-only effect; inactive = no such curve, though single readings can be large or run the other way. Where the call is inconclusive, the potency comes from a doubtful curve fit.

molecular target: Histone-lysine N-methyltransferase EHMT2 (Homo sapiens) (UniProt Q96KQ7); test: qHTS Assay for Inhibitors of Histone Lysine Methyltransferase G9a; conditions: G9a H3K9 monomethylation, AlphaScreen, 2 h; activity, negative = inhibition: at 59 µM (top of the series) unless noted; also: nearly all actives have a fitted effect of over 75% in size
Sequence of UniProt Q96KQ7 (Q96KQ7 whole entry, looked up): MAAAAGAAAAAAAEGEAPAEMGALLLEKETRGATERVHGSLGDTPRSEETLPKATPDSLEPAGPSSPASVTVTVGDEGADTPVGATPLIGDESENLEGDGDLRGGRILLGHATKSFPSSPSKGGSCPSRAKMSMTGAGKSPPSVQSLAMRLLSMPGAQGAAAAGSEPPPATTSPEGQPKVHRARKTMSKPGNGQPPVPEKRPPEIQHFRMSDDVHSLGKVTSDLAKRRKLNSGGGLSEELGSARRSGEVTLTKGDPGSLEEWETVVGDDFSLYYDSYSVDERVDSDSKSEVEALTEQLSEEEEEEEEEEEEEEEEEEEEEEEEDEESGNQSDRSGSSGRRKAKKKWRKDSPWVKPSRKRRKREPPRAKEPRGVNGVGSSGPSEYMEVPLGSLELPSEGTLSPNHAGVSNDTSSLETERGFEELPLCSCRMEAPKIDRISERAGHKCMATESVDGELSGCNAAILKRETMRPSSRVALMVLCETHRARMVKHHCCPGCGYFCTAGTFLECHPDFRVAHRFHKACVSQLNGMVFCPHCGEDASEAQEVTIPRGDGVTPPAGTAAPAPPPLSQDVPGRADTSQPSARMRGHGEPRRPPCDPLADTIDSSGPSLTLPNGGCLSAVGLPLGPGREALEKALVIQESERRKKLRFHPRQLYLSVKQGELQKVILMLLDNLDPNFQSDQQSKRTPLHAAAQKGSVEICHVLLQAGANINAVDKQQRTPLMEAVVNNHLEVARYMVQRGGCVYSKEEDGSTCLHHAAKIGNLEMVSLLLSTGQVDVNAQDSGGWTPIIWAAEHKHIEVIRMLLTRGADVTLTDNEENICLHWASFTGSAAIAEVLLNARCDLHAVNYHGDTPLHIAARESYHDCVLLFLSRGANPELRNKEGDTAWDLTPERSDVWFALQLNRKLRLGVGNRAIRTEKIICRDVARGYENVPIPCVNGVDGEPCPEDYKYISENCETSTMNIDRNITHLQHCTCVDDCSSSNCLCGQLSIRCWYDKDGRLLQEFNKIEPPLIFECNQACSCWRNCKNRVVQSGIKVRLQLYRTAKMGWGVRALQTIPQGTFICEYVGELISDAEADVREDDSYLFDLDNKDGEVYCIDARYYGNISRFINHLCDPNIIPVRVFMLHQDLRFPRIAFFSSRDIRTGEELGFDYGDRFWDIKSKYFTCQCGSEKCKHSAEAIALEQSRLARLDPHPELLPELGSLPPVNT
How it was run: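 Readings reflect AlphaScreen signal from monomethyl-H3K9 antibody detection. HMT at 20 nM; substrate b-H3K9 500 nM; cofactor SAM 20 uM; 2 h RT reaction; compounds tested as titrations in qHTS with 15 min preincubation.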
% is scaled to controls: 0 for no effect and ±100 for the full control effect; potency is read from the fitted curve at half-maximal effect; tags tell the direction and shape of the fitted curve.

Row | Compound | Potency | activity, negative = inhibition
1 | COc1ccc(N2C(=O)CC(N3CC=C(c4ccccc4)CC3)C2=O)cc1 (stereo not drawn) | active: 10 µM | –
2 | C[C@H]1CC[C@@H]2[C@@H](C)[C@H]3[C@H](C[C@H]4[C@@H]5CC=C6C[C@@H](O[C@@H]7O[C@H](CO)[C@H](O)[C@H](O[C@@H]8O[C@H](CO)[C@@H](O)[C@H](O)[C@H]8O)[C@H]7O[C@@H]7O[C@@H](C)[C@H](O)[C@@H](O)[C@H]7O)CC[C@]6(C)[C@H]5CC[C@]34C)N2C1 | inconclusive: 79.4 µM [inhibitor, partial curve, poor fit] | –
3 | COc1ccc(NC(=O)CCc2nc(C3=CCN(Cc4cccc(Cl)c4)CC3)no2)c(OC)c1 | inconclusive: 39.8 µM [inhibitor, single point] | –
4 | Oc1ccc(CC2CC3CCN2CC3)cc1O (stereo not drawn) | inconclusive: 89.1 µM [inhibitor, single point] | –
5 | C/C(=C\c1ccc(N(C)C)cc1)[N+](=O)[O-] | inconclusive: 79.4 µM [inhibitor, single point] | –
6 | O=S1(=O)N(Cc2ccccc2Cl)CCCN1Cc1ccccc1Cl | inactive | –
7 | O=C1NC(=O)C(=Cc2cn(CCOc3ccc4c(c3)OCO4)c3ccccc23)C(=O)N1 | inconclusive: 89.1 µM [inhibitor, partial curve, poor fit] | –
8 | CC(C)(C)OC(=O)NNC(=S)NC1CCCCC1 | active: 25.1 µM | –
9 | Cc1ccc(-c2nc(N3CCOCC3)s[n+]2-c2ccccc2)cc1 | active: 0.891 µM | –
10 | Cc1ccc(N(C)C(=O)Oc2cccc3ccc(C)nc23)cc1 | inactive | –
11 | CCn1c(O)c(C=Nc2ccc(S(N)(=O)=O)cc2)c(=O)n(CC)c1=S | inconclusive: 8.91 µM [inhibitor, partial curve, poor fit] | –
12 | CC(C)(C)c1ccc(-c2n[nH]c(=S)n2CCCN2CCOCC2)cc1 | active: 6.31 µM | –
13 | O=C(Nc1ccc2c(c1)OCO2)c1cccn(Cc2cccc([N+](=O)[O-])c2)c1=O | inactive | –
14 | O=C(CCn1c(=O)oc2ccccc21)N1CCC2(CC1)OCCO2 | inactive | –
15 | COc1ccc(N2C(=O)NC(=O)/C(=C/c3ccc([N+](=O)[O-])s3)C2=O)cc1 | active: 8.91 µM | –
16 | CCC(N)C(O)c1ccc(O)c(O)c1 (stereo not drawn) | – | inconclusive: -111% [inhibitor] [at 2.33 µM]
17 | CCN(CC)c1ccc(CNCCc2ccccc2F)cc1 | – | inactive: 4.59% [at 12.7 µM]
18 | CC(=O)OC1N=C(c2ccccc2)c2cc(Br)ccc2NC1=O (stereo not drawn) | – | inactive: 20.8% [at 0.501 µM]
19 | CCC1(c2ccc(-c3ccccc3)cc2)C(=O)NC(=O)NC1=O | inactive | –
20 | COc1cccc(N2C(=O)NC(=O)/C(=C/c3ccc4c5c(cccc35)CC4)C2=O)c1 | active: 10 µM | –
21 | CC(C)N1CC=C(c2c[nH]c3ccccc23)CC1 | inconclusive: 25.1 µM [inhibitor, partial curve, poor fit] | –
22 | Cc1cc(/C=C2\C(=O)NC(=O)N(Cc3ccco3)C2=O)c(C)n1-c1ccc(O)cc1 | inconclusive: 44.7 µM [inhibitor, partial curve] | –
23 | COc1ccc(N2C(=O)/C(=C/c3ccc(C)o3)C(=O)NC2=S)cc1 | active: 10 µM | –
24 | COc1ccc(C(C)=O)cc1CC(C(=O)c1ccc(C)cc1)N(C)C (stereo not drawn) | inactive | –
25 | CC(Cc1ccccc1)N1C(=O)c2ccccc2C1=O (stereo not drawn) | inactive | –

Row | Compound | Potency | activity, negative = inhibition
26 | CCOP(=O)(Oc1ccccc1)c1c([N+](=O)[O-])cc(C(F)(F)F)cc1[N+](=O)[O-] (stereo not drawn) | inconclusive: 50.1 µM [inhibitor, partial curve, poor fit] | –
27 | O=c1[nH]c(=S)n(-c2ccc(F)cc2)c(O)c1/C=N/N1CCOCC1 | active: 44.7 µM | –
28 | CCSC(=O)N1CCCCCC1 | – | inactive: -13.3% [at 0.501 µM]
29 | COP(=S)(OC)SCN1C(=O)c2ccccc2C1=O | active: 15.8 µM | –
30 | NS(=O)(=O)c1cc(C(=O)OCC(=O)Nc2ccc3[nH]c(=O)[nH]c3c2)ccc1Cl | active: 1.41 µM | –
31 | Cc1cc2oc(=O)cc(-c3ccccc3)c2c(C)c1-c1ccc(CO)cc1 | inconclusive: 31.6 µM [inhibitor, single point] | –
32 | COc1cccc(C(=O)C2CCCN(Cc3cnn(C(C)C)c3)C2)c1 (stereo not drawn) | inactive | –
33 | O=c1[nH]c(=S)n(CCC2=CCCCC2)c(O)c1/C=N/Nc1ccccc1 | inconclusive: 1 µM [inhibitor, full curve, poor fit] | –
34 | COc1ccc(C2CN(C)CC2C(=O)c2ccc(C)cc2)cc1Cl (stereo not drawn) | inconclusive: 50.1 µM [inhibitor, partial curve, poor fit] | –
35 | COc1ccc(NC(=O)N2CCC3(CC2)OCCO3)cc1OC | inactive | –
36 | Clc1ccc2c(c1)C(c1ccccc1Cl)=NCc1nnc(Br)n1-2 | inconclusive: 25.1 µM [inhibitor, single point] | –
37 | COc1cc(C=C2C(=O)NC(=O)NC2=O)ccc1OCc1ccc([N+](=O)[O-])cc1 | active: 25.1 µM | –
38 | COc1ccc(-c2c3c(=O)n(C)c(=O)n(C)c3c3n2-c2ccccc2NC3c2ccccc2OC)cc1 (stereo not drawn) | inconclusive: 1.58 µM [inhibitor, partial curve, poor fit] | –
39 | CSc1nnc([C@@H](N)Cc2ccccc2)o1 | inconclusive: 28.2 µM [inhibitor, single point] | –
40 | COc1cc(/C=C2\C(=O)NC(=O)N(c3ccccc3)C2=O)cc(OC)c1O | inconclusive: 1.41 µM [inhibitor, single point] | –
41 | CCOc1ccc(NCc2cccn2-c2nnc(N3CCC(C(=O)NC(C)c4ccccc4)CC3)s2)cc1 (stereo not drawn) | inconclusive: 28.2 µM [inhibitor, partial curve, poor fit] | –
42 | Cc1cccc(N2C(=O)NC(=O)/C(=C\c3cnc(-c4ccccc4)nc3)C2=O)c1 | active: 7.08 µM | –
43 | Cc1cc(/C=C2\C(=O)NC(=O)N(c3ccc(Br)cc3)C2=O)c(C)n1C | inconclusive: 50.1 µM [inhibitor, partial curve, poor fit] | –
44 | Cc1cccc(C)c1OCc1n[nH]c(=S)n1N | active: 1.78 µM | –
45 | Cc1ccccc1N1C(=O)NC(=O)/C(=C\c2ccc3c(c2)CCCN3Cc2ccccc2)C1=O | active: 10 µM | –
46 | COc1ccccc1CN1CCN(C(=O)Cc2ccccc2)CC1 | active: 17.8 µM | –
47 | O=c1oc(Cl)c(Cl)c2ccccc12 | active: 10 µM and active: 6.7 µM | –
48 | O=c1c2ccccc2nc(CSc2ncnc3nc[nH]c23)n1-c1ccccc1Cl | inconclusive: 31.6 µM [inhibitor, single point] | –
49 | CC(C)n1cnc2c(C(=O)N[C@H]3CN4CCC3CC4)cc(Cl)cc21 | inactive | –
50 | N#Cc1cccc(NC(=O)N2CC3(CCN(C(=O)Oc4ccccc4)CC3)C2)c1 | – | inactive: 11% [at 12.7 µM]

Row | Compound | Potency | activity, negative = inhibition
51 | CCN(CC)CCCN=C(C)c1c(O)n(-c2ccccc2)c(=O)[nH]c1=O | inactive | –
52 | Cc1[nH]c2ccccc2c1C1=CCNCC1 | active: 50.1 µM | –
53 | CC(=O)Nc1ccc(OC(=O)c2ccccc2N)cc1 | inconclusive: 4.47 µM [inhibitor, partial curve] | –
54 | CC(C)n1c(=O)c(C=Nc2ccc(Cl)cc2)c(O)n(Cc2ccco2)c1=O | inactive | –
55 | COc1ccccc1-n1c(O)c(C=NC2CC2)c(=O)[nH]c1=O | inconclusive: 89.1 µM [inhibitor, single point] | –
56 | CN1CCc2nc(SCC(=O)OC(C)(C)C)c(C#N)cc2C1 | active: 50.1 µM | –
57 | Cc1c(N=Nc2c(O)[nH]c(=S)[nH]c2=O)c(=O)n(-c2ccccc2)n1C | active: 2 µM | –
58 | Cc1cc(NCCN)nc2ccccc12 | inconclusive: 28.2 µM [inhibitor, single point] | –
59 | CCOc1ccc(CN(CCc2ccc3c(c2)OCO3)Cc2ccc(C)cc2)cc1 | inconclusive: 0.501 µM [inhibitor, full curve, poor fit] | –
60 | COc1ccc(N2CCN(CCCNC(=O)c3cnn(-c4ccc(F)cc4)c3-n3cccc3)CC2)cc1 | active: 12.6 µM | –
61 | O=Cc1cn(Cc2ccccc2[N+](=O)[O-])c2ccccc12 | inconclusive: 28.2 µM [inhibitor, single point] | –
62 | Cn1c(O)c(C=NCCN2CCOCC2)c(=O)[nH]c1=S | – | inconclusive: -79.9% [inhibitor]
63 | CC(C)(C)N1C(=O)NC(=O)/C(=C\c2ccc3c(c2)CCN3CCCCl)C1=O | active: 39.8 µM | –
64 | O=c1[nH]c(=S)n(C2CC2)c(O)c1C=NCc1cccnc1 | inconclusive: 35.5 µM [inhibitor, partial curve, poor fit] | –
65 | CC(=O)c1c(O)n(-c2cccc(Cl)c2)c(=O)[nH]c1=O (tested in a mixture with another compound) | active: 50.1 µM | –
66 | CCOP(=O)(/C(C#N)=C(\C)O)c1ccccc1 (stereo not drawn) | inconclusive: 79.4 µM [inhibitor, partial curve, poor fit] | –
67 | COc1ccc(NC(=S)NC(NC(=O)CF)C(Cl)(Cl)Cl)c([N+](=O)[O-])c1 (stereo not drawn) | active: 10 µM | –
68 | Cc1cc(N2C(=O)CC(N3CCC(n4c(=O)[nH]c5ccccc54)CC3)C2=O)no1 (stereo not drawn) | inconclusive: 6.31 µM [inhibitor, partial curve, poor fit] | –
69 | NC1=C(Br)C(=O)c2ccccc2C1=O | active: 50.1 µM | –
70 | Cc1cc(=O)[nH]c(CCl)n1 | – | inconclusive: -90.1% [inhibitor]
71 | CN1CCN(CCC(=O)OC2CC3CCC(C2)N3C)CC1 (stereo not drawn) | inconclusive: 25.1 µM [inhibitor, single point] | –
72 | CCCN1CCCC2Cc3[nH]ncc3CC21 (stereo not drawn) | active: 50.1 µM | –
73 | O=C(Nc1nc2c(s1)CCCC2)C1CCCN1C(=O)c1cccs1 (stereo not drawn) | inconclusive: 8.91 µM [inhibitor, full curve] | –
